{"source": "patent US20240417727A1", "about": "“ANTAGONIST OF THE MIRNA-106B-5P TO TREAT OR PREVENT THE CARDIOTOXICITY THAT IS DEVELOPED IN ONCOLOGIC PATIENTS AFTER RECEIVING ANTHRACYCLINE-BASED CHEMOTHERAPY” (UNIVERSIDAD DE MURCIA, priority 2021, published 2024)", "tested_on": "C57BL6 mice", "conditions": "for ejection fraction (EF) / fractional shorting (FS): echocardiography, 8 weeks post-Dox", "key": {"[1]": {"conditions": "AM106 20 mg/kg i.v., Dox 5 mg/kg i.p. weekly x5"}, "[2]": {"conditions": "plasma, AM106 20 mg/kg i.v., Dox 5 mg/kg i.p."}, "[3]": {"conditions": "pretreatment with AM106, Dox cumulative 25 mg/kg"}}}
{"compound": "COc1cccc2c1C(=O)c1c(O)c3c(c(O)c1C2=O)C[C@@](O)(C(=O)CO)C[C@@H]3O[C@H]1C[C@H](N)[C@H](O)[C@H](C)O1", "note": "[Dox, doxorubicin, reference compound]", "values": [{"measurement": "body mass", "setting": "Dox treatment", "result": "whole-body cachexia"}, {"measurement": "3/7 caspase activity", "setting": "LV myocardium", "result": "activation of 3/7 caspase activity"}, {"measurement": "cellular apoptosis by TUNEL staining", "setting": "LV myocardium", "result": "induced cellular apoptosis"}, {"measurement": "cardiac atrophy and fibrosis", "setting": "cumulative 25 mg/kg dose", "result": "significant cardiac atrophy and fibrosis"}, {"measurement": "ejection fraction (EF)", "result": "significant decline"}, {"measurement": "fractional shorting (FS)", "result": "significant decline"}]}
{"compound": "AM106: miRCURY LNA microRNA Inhibitor against miR-106b-5p, 5′-CACTGTCAGCACTTT-3′ (SEQ ID NO 3), sequence shown without LNA pattern (antisense CACUGUCAGCACUUU; LNA-modified inhibitor, LNA pattern not given here)", "values": [{"measurement": "sST2 plasma levels", "setting": "AM106 20 mg/kg i.v., Dox 5 mg/kg i.p.", "result": "decreased"}, {"measurement": "FOG2 mRNA levels", "setting": "[1]", "result": "significant up-regulation"}, {"measurement": "PR55α mRNA levels", "setting": "[1]", "result": "significant up-regulation"}, {"measurement": "sST2 expression in LV myocardium", "setting": "Dox", "result": "decreased sST2 expression"}, {"measurement": "body mass", "setting": "Dox treatment", "result": "inhibited the loss of body mass"}, {"measurement": "mortality", "setting": "Dox treatment", "result": "prevent the mortality associated with Dox treatment"}, {"measurement": "3/7 caspase activity", "setting": "LV myocardium", "result": "prevented"}, {"measurement": "cellular apoptosis by TUNEL staining", "setting": "LV myocardium", "result": "prevented"}, {"measurement": "YY1-HDAC4 interaction", "setting": "LV myocardium, co-immunoprecipitation", "result": "prevent the effect of Dox on YY1-HDAC4 interaction"}, {"measurement": "Dox-induced HDAC4 increase", "setting": "LV, immunohistochemistry", "result": "no effect"}, {"measurement": "Dox-induced YY1 increase", "setting": "LV, immunohistochemistry", "result": "no effect"}, {"measurement": "ejection fraction (EF)", "result": "prevented"}, {"measurement": "fractional shorting (FS)", "result": "prevented"}, {"measurement": "LDH activity", "setting": "[2]", "result": "decreased"}, {"measurement": "cardiac troponin T (cTnT) levels", "setting": "[2]", "result": "decreased"}, {"measurement": "cardiac fibrosis", "setting": "[3]", "result": "completely inhibited"}, {"measurement": "reduction in cardiomyocyte size", "setting": "[3]", "result": "completely inhibited"}, {"measurement": "reduction in heart weight", "setting": "[3]", "result": "completely inhibited"}]}
